Some of the results follow.
Columns and labels:
Experiment in all cases: glycan array binding signal (z-score within array); higher = stronger binding
Settings in all cases: glycan notation: IUPAC condensed, linker removed
[1] = target: Fuc(a1-2)Gal
In short: (§1)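 Arrays were curated from the Consortium for Functional Glycomics database, 3228 in total, and kept only where the protein sequence was available. Binding is expressed as a within-array Z-score. This score was averaged across arrays of the same protein sequence at different concentrations or buffers and across linkers, and negative values can be read as non-binding.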

[2] = target: Fuc(a1-2)Gal(b1-3)GalNAc
In short: as §1

[3] = target: Fuc(a1-2)Gal(b1-3)GalNAc(b1-3)Gal
In short: as §1

[4] = target: Fuc(a1-2)Gal(b1-3)GalNAc(b1-3)Gal(a1-4)Gal(b1-4)Glc
In short: as §1

[5] = target: Fuc(a1-2)Gal(b1-3)GalNAc(b1-4)[Neu5Ac(a2-3)]Gal(b1-4)Glc
In short: as §1

[6] = target: Fuc(a1-2)Gal(b1-3)GlcNAc
In short: as §1

[7] = target: Fuc(a1-2)Gal(b1-3)GlcNAc(b1-3)Gal(b1-4)Glc
In short: as §1

[8] = target: Fuc(a1-2)Gal(b1-3)[Fuc(a1-4)]GlcNAc
In short: as §1

[9] = target: Fuc(a1-2)Gal(b1-4)Glc
In short: as §1

[10] = target: Fuc(a1-2)Gal(b1-4)GlcNAc
In short: as §1

[11] = target: Fuc(a1-2)Gal(b1-4)GlcNAc(b1-3)Gal(b1-4)GlcNAc
In short: as §1

[12] = target: Fuc(a1-2)Gal(b1-4)GlcNAc(b1-3)Gal(b1-4)GlcNAc(b1-3)Gal(b1-4)GlcNAc
In short: as §1

[13] = target: Fuc(a1-2)Gal(b1-4)[Fuc(a1-3)]GlcNAc
In short: as §1

[14] = target: Fuc(a1-2)Gal(b1-4)[Fuc(a1-3)]GlcNAc(b1-3)Gal(b1-4)[Fuc(a1-3)]GlcNAc
In short: as §1

[15] = target: Fuc(a1-2)Gal(b1-4)[Fuc(a1-3)]GlcNAc(b1-3)Gal(b1-4)[Fuc(a1-3)]GlcNAc(b1-3)Gal(b1-4)[Fuc(a1-3)]GlcNAc
In short: as §1

[16] = target: Fuc(a1-2)GlcNAc
In short: as §1

[17] = target: Fuc(a1-2)[Gal(a1-3)]Gal
In short: as §1

[18] = target: Fuc(a1-2)[Gal(a1-3)]Gal(b1-3)GlcNAc
In short: as §1

[19] = target: Fuc(a1-2)[Gal(a1-3)]Gal(b1-4)Glc
In short: as §1

[20] = target: Fuc(a1-2)[Gal(a1-3)]Gal(b1-4)GlcNAc
In short: as §1

[21] = target: Fuc(a1-2)[Gal(a1-3)]Gal(b1-4)[Fuc(a1-3)]GlcNAc
In short: as §1

[22] = target: Fuc(a1-2)[Gal(a1-4)]Gal(b1-4)GlcNAc
In short: as §1

[23] = target: Fuc(a1-2)[GalNAc(a1-3)]Gal
In short: as §1

[24] = target: Fuc(a1-2)[GalNAc(a1-3)]Gal(b1-3)GlcNAc
In short: as §1

[25] = target: Fuc(a1-2)[GalNAc(a1-3)]Gal(b1-4)Glc
In short: as §1

[26] = target: Fuc(a1-2)[GalNAc(a1-3)]Gal(b1-4)GlcNAc
In short: as §1

[27] = target: Fuc(a1-2)[GalNAc(a1-3)]Gal(b1-4)[Fuc(a1-3)]GlcNAc
In short: as §1

[28] = target: Fuc(a1-2)[GalNAc(a1-4)]Gal(b1-4)GlcNAc
In short: as §1

[29] = target: Fuc(a1-2)[GalNAc(b1-3)]Gal
In short: as §1

[30] = target: Fuc(a1-3)GlcNAc
In short: as §1

B1: FaeGab (Escherichia coli) (protein)
chain: WMTGDFNGSVDIGGSITADDYRQKWEWKVGTGLNGFGNVLNDLTNGGTKLTITVTGNKPILLGRTKEAFATPVSGGVDGIPQIAFTDYEGASVKLRNTDGETNKGLAYFVLPMKNAEGTKVGSVKVNASYAGVFGKGGVTSADGELFSLFADGLRAIFYGGLTTTVSGAALTSGSAAAARTELFGSLSRNDILGQIQRVNANITSLVDVAGSYREDMEYTDGTVVSAAYALGIANGQTIEATFNQAVTTSTQWSAPLNVAITYY
[1]
  glycan array binding signal (z-score): 0.028
[2]
  glycan array binding signal (z-score): -0.293
[3]
  glycan array binding signal (z-score): -0.428
[4]
  glycan array binding signal (z-score): -0.423
[5]
  glycan array binding signal (z-score): -0.204
[6]
  glycan array binding signal (z-score): -0.346
[7]
  glycan array binding signal (z-score): -0.226
[8]
  glycan array binding signal (z-score): -0.354
[9]
  glycan array binding signal (z-score): -0.16
[10]
  glycan array binding signal (z-score): -0.37
[11]
  glycan array binding signal (z-score): -0.428
[12]
  glycan array binding signal (z-score): -0.383
[13]
  glycan array binding signal (z-score): -0.357
[14]
  glycan array binding signal (z-score): -0.397
[15]
  glycan array binding signal (z-score): -0.302
[16]
  glycan array binding signal (z-score): -0.261
[17]
  glycan array binding signal (z-score): -0.469
[18]
  glycan array binding signal (z-score): -0.449
[19]
  glycan array binding signal (z-score): -0.39
[20]
  glycan array binding signal (z-score): -0.456
[21]
  glycan array binding signal (z-score): -0.494
[22]
  glycan array binding signal (z-score): -0.378
[23]
  glycan array binding signal (z-score): -0.356
[24]
  glycan array binding signal (z-score): -0.511
[25]
  glycan array binding signal (z-score): -0.492
[26]
  glycan array binding signal (z-score): -0.506
[27]
  glycan array binding signal (z-score): -0.305
[28]
  glycan array binding signal (z-score): -0.283
[29]
  glycan array binding signal (z-score): 0.031
[30]
  glycan array binding signal (z-score): 0.049
